The other results are listed elsewhere or left out.
B1: PhoQ; a variant is named by its letters at X, in order, P23837 (parent)
chain: MKKLLRLFFPLSLRVRFLLATAAVVLVLSLAYGMVALIGYSVSFDKTTFRLLRGESNLFYTLAKWENNKLHVELPENIDKQSPTMTLIYDENGQLLWAQRDVPWLMKMIQPDWLKSNGFHEIEADVNDTSLLLSGDHSIQQQLQEVREDDDDAEMTHSVAVNVYPATSRMPKLTIVVVDTIPVELKSSYMVWSWFIYVLSANLLLVIPLLWVAAWWSLRPIEALAKEVRELEEHNRELLNPATTRELTSLVRNLNRLLKSERERYDKYRTTLTDLTHSLKTPLXXLQXXLRSLRSEKMSVSDAEPVMLEQISRISQQIGYYLHRASMRGGTLLSRELHPVAPLLDNLTSALNKVYQRKGVNISLDISPEISFVGEQNDFVEVMGNVLDNACKYCLEFVEISARQTDEHLYIVVEDDGPGIPLSKREVIFDRGQRVDTLRPGQGVGLAVAREITEQYEGKIVAGESMLGGARMEVIFGRQHSAPKDE

Variants of: B1
Experiment: enrichment ratio after two sorts for PhoP signalling (ratio (wild type AVST 3.29)); higher = more functional
Conditions: with PhoP (E. coli)
In the case of SHDE, the enrichment ratio is reported as ≤ 0.25.
AAEN was tested, and the enrichment ratio was ≤ 0.25.
For FWCE, the enrichment ratio was ≤ 0.25.
In the case of LCCT, the enrichment ratio is reported as ≤ 0.25.
With EDTP the enrichment ratio was ≤ 0.25.
In the case of DVDF, the enrichment ratio is reported as ≤ 0.25.
In the case of SMKM, the enrichment ratio is reported as ≤ 0.25.
PNES was tested, and the enrichment ratio was ≤ 0.25.
With GHMH the enrichment ratio was ≤ 0.25.
For QRRT, the enrichment ratio was ≤ 0.25.
NHFH was tested, and the enrichment ratio was ≤ 0.25.
With NPHI the enrichment ratio was ≤ 0.25.
QDPT was tested, and the enrichment ratio was ≤ 0.25.
SWFG was tested, and the enrichment ratio was ≤ 0.25.
With VQNA the enrichment ratio was ≤ 0.25.
In the case of YHYC, the enrichment ratio is reported as ≤ 0.25.
With YKEH the enrichment ratio was ≤ 0.25.
MCDH was tested, and the enrichment ratio was ≤ 0.25.
WIFV was tested, and the enrichment ratio was ≤ 0.25.
For RDHV, the enrichment ratio was ≤ 0.25.
In the case of HTHH, the enrichment ratio is reported as ≤ 0.25.
In the case of QCNQ, the enrichment ratio is reported as ≤ 0.25.
In the case of TSDT, the enrichment ratio is reported as ≤ 0.25.
For DFFY, the enrichment ratio was ≤ 0.25.
With NWRH the enrichment ratio was ≤ 0.25.
With SKKE the enrichment ratio was ≤ 0.25.
In the case of KTAL, the enrichment ratio is reported as ≤ 0.25.
TKGN was tested, and the enrichment ratio was ≤ 0.25.
YSVR was tested, and the enrichment ratio was ≤ 0.25.
DVAW was tested, and the enrichment ratio was ≤ 0.25.
With MMFN the enrichment ratio was ≤ 0.25.
KIML was tested, and the enrichment ratio was ≤ 0.25.
For APFT, the enrichment ratio was ≤ 0.25.
SAYA was tested, and the enrichment ratio was ≤ 0.25.
In the case of TFYN, the enrichment ratio is reported as ≤ 0.25.
For GIAE, the enrichment ratio was ≤ 0.25.
YFKK was tested, and the enrichment ratio was ≤ 0.25.
In the case of HKWM, the enrichment ratio is reported as ≤ 0.25.
EKYI was tested, and the enrichment ratio was ≤ 0.25.
For RSTQ, the enrichment ratio was ≤ 0.25.
With YRVV the enrichment ratio was ≤ 0.25.
KCCK was tested, and the enrichment ratio was ≤ 0.25.
With LMSR the enrichment ratio was ≤ 0.25.
HVGR was tested, and the enrichment ratio was ≤ 0.25.
SHTW was tested, and the enrichment ratio was ≤ 0.25.
With SIDI the enrichment ratio was ≤ 0.25.
In the case of MRCH, the enrichment ratio is reported as ≤ 0.25.
For KHLH, the enrichment ratio was ≤ 0.25.
With VDNN the enrichment ratio was ≤ 0.25.
For EQSS, the enrichment ratio was ≤ 0.25.
NKFW was tested, and the enrichment ratio was ≤ 0.25.
For CALF, the enrichment ratio was ≤ 0.25.
For HSRL, the enrichment ratio was ≤ 0.25.
QMFS was tested, and the enrichment ratio was ≤ 0.25.
For SFEA, the enrichment ratio was ≤ 0.25.
KPCF was tested, and the enrichment ratio was ≤ 0.25.
With AWES the enrichment ratio was ≤ 0.25.
LDTE was tested, and the enrichment ratio was ≤ 0.25.
ESPI was tested, and the enrichment ratio was ≤ 0.25.
With KVIP the enrichment ratio was ≤ 0.25.
In the case of PLER, the enrichment ratio is reported as ≤ 0.25.
In the case of WYDC, the enrichment ratio is reported as ≤ 0.25.
VSHW was tested, and the enrichment ratio was ≤ 0.25.
SPPY was tested, and the enrichment ratio was ≤ 0.25.
For FPET, the enrichment ratio was ≤ 0.25.
For HQEQ, the enrichment ratio was ≤ 0.25.
With TCGR the enrichment ratio was ≤ 0.25.
In the case of LHTG, the enrichment ratio is reported as ≤ 0.25.
GNMI was tested, and the enrichment ratio was 46.4.
EGMA was tested, and the enrichment ratio was ≤ 0.25.
With EHFM the enrichment ratio was ≤ 0.25.
QSGD was tested, and the enrichment ratio was ≤ 0.25.
For ANSK, the enrichment ratio was ≤ 0.25.
For QCYG, the enrichment ratio was ≤ 0.25.
In the case of FWSN, the enrichment ratio is reported as ≤ 0.25.
With KKCR the enrichment ratio was ≤ 0.25.
In the case of VCWA, the enrichment ratio is reported as ≤ 0.25.
With TMQE the enrichment ratio was ≤ 0.25.
In the case of CKSI, the enrichment ratio is reported as ≤ 0.25.
In the case of HWAW, the enrichment ratio is reported as ≤ 0.25.
In the case of LLWR, the enrichment ratio is reported as ≤ 0.25.
MHAF was tested, and the enrichment ratio was ≤ 0.25.
In the case of AGGT, the enrichment ratio is reported as ≤ 0.25.
In the case of DYVR, the enrichment ratio is reported as ≤ 0.25.
With LCKL the enrichment ratio was ≤ 0.25.
In the case of SVYQ, the enrichment ratio is reported as ≤ 0.25.
In the case of WWLP, the enrichment ratio is reported as ≤ 0.25.
VATT was tested, and the enrichment ratio was ≤ 0.25.
Variant ADAI has an enrichment ratio of 4.82.
For KIRM, the enrichment ratio was ≤ 0.25.
In the case of RARK, the enrichment ratio is reported as ≤ 0.25.
VVCK was tested, and the enrichment ratio was ≤ 0.25.
In the case of AYKD, the enrichment ratio is reported as ≤ 0.25.
TQAL was tested, and the enrichment ratio was 2.31.
For DWNR, the enrichment ratio was ≤ 0.25.
SKMV gave an enrichment ratio of 14.3.
DISD was tested, and the enrichment ratio was ≤ 0.25.
With PINI the enrichment ratio was ≤ 0.25.
RSDP was tested, and the enrichment ratio was ≤ 0.25.
In the case of YAIW, the enrichment ratio is reported as ≤ 0.25.
NPMH was tested, and the enrichment ratio was ≤ 0.25.
For YLPF, the enrichment ratio was ≤ 0.25.
IISN was tested, and the enrichment ratio was ≤ 0.25.
With PFWL the enrichment ratio was ≤ 0.25.
With DFPN the enrichment ratio was ≤ 0.25.
In the case of YYWI, the enrichment ratio is reported as ≤ 0.25.
In the case of HFWK, the enrichment ratio is reported as ≤ 0.25.
With MSKH the enrichment ratio was ≤ 0.25.
For IVTS, the enrichment ratio was ≤ 0.25.
SQWM was tested, and the enrichment ratio was ≤ 0.25.
MRPC was tested, and the enrichment ratio was ≤ 0.25.
With ECAR the enrichment ratio was ≤ 0.25.
In the case of GRPD, the enrichment ratio is reported as ≤ 0.25.
For WEDL, the enrichment ratio was ≤ 0.25.
IWSD was tested, and the enrichment ratio was ≤ 0.25.
TDLM was tested, and the enrichment ratio was 10.2.
With INFP the enrichment ratio was ≤ 0.25.
For YNRL, the enrichment ratio was 1.06.
With APTL the enrichment ratio was ≤ 0.25.
In the case of DEAA, the enrichment ratio is reported as ≤ 0.25.
With ELHK the enrichment ratio was ≤ 0.25.
For KIMP, the enrichment ratio was ≤ 0.25.
RTAY was tested, and the enrichment ratio was ≤ 0.25.
PLMW was tested, and the enrichment ratio was ≤ 0.25.
DPGA was tested, and the enrichment ratio was ≤ 0.25.
In the case of HSNF, the enrichment ratio is reported as ≤ 0.25.
YAQP was tested, and the enrichment ratio was ≤ 0.25.
PMQF was tested, and the enrichment ratio was ≤ 0.25.
TIKN was tested, and the enrichment ratio was ≤ 0.25.
In the case of FRRY, the enrichment ratio is reported as ≤ 0.25.
APGD was tested, and the enrichment ratio was ≤ 0.25.
VGIK was tested, and the enrichment ratio was ≤ 0.25.
In the case of IECD, the enrichment ratio is reported as ≤ 0.25.
In the case of YFKT, the enrichment ratio is reported as ≤ 0.25.
RKQE was tested, and the enrichment ratio was ≤ 0.25.
With HSTT the enrichment ratio was ≤ 0.25.
For RRMT, the enrichment ratio was ≤ 0.25.
GGKC was tested, and the enrichment ratio was ≤ 0.25.
With LISE the enrichment ratio was ≤ 0.25.
In the case of WPQM, the enrichment ratio is reported as ≤ 0.25.
FYTV was tested, and the enrichment ratio was 0.77.
For GCTF, the enrichment ratio was 1.14.
With WVRI the enrichment ratio was ≤ 0.25.
VNFT was tested, and the enrichment ratio was ≤ 0.25.
In the case of INFE, the enrichment ratio is reported as ≤ 0.25.
In the case of VNKT, the enrichment ratio is reported as ≤ 0.25.
PHWL was tested, and the enrichment ratio was ≤ 0.25.
In the case of RDQE, the enrichment ratio is reported as ≤ 0.25.
In the case of FYLN, the enrichment ratio is reported as ≤ 0.25.
With HPEG the enrichment ratio was ≤ 0.25.
ECPG was tested, and the enrichment ratio was ≤ 0.25.
For PRRH, the enrichment ratio was ≤ 0.25.
For MSHG, the enrichment ratio was ≤ 0.25.
For FSAY, the enrichment ratio was ≤ 0.25.
WDPE was tested, and the enrichment ratio was ≤ 0.25.
For WCSL, the enrichment ratio was ≤ 0.25.
In the case of HQCH, the enrichment ratio is reported as ≤ 0.25.
For ELMH, the enrichment ratio was ≤ 0.25.
NVIP was tested, and the enrichment ratio was ≤ 0.25.
TTWN was tested, and the enrichment ratio was 15.1.
YLHY was tested, and the enrichment ratio was ≤ 0.25.
DPRH was tested, and the enrichment ratio was ≤ 0.25.
FHYW was tested, and the enrichment ratio was ≤ 0.25.
LWDN was tested, and the enrichment ratio was ≤ 0.25.
Work on ADIL yielded an enrichment ratio of 8.79.
In the case of PWVT, the enrichment ratio is reported as ≤ 0.25.
For DFLI, the enrichment ratio was ≤ 0.25.
With AEHD the enrichment ratio was ≤ 0.25.
HYHM was tested, and the enrichment ratio was ≤ 0.25.
YALT showed an enrichment ratio of 6.34.
With YDMV the enrichment ratio was ≤ 0.25.
In the case of DRKG, the enrichment ratio is reported as ≤ 0.25.
With LVWR the enrichment ratio was ≤ 0.25.
Work on SLCL yielded an enrichment ratio of 11.2.
For ATMD, the enrichment ratio was 27.9.
YQGY was tested, and the enrichment ratio was ≤ 0.25.
For QNSI, the enrichment ratio was ≤ 0.25.
In the case of YGCT, the enrichment ratio is reported as ≤ 0.25.
HCFP was tested, and the enrichment ratio was ≤ 0.25.
QCTM was tested, and the enrichment ratio was ≤ 0.25.
For PLVL, the enrichment ratio was ≤ 0.25.
With SWSI the enrichment ratio was ≤ 0.25.
With HHIK the enrichment ratio was ≤ 0.25.
RGTD was tested, and the enrichment ratio was ≤ 0.25.
TWMW was tested, and the enrichment ratio was ≤ 0.25.
With RSWW the enrichment ratio was ≤ 0.25.
With VMKH the enrichment ratio was ≤ 0.25.
In the case of SFTM, the enrichment ratio is reported as 5.17.
QTWD was tested, and the enrichment ratio was 0.338.
In the case of RMEM, the enrichment ratio is reported as ≤ 0.25.
PHWV was tested, and the enrichment ratio was ≤ 0.25.
MLND was tested, and the enrichment ratio was ≤ 0.25.
With GVSL the enrichment ratio was 5.42.
For HTEP, the enrichment ratio was ≤ 0.25.
For KYGV, the enrichment ratio was ≤ 0.25.
